PubChem BioAssay (NCATS)
Where “and” joins values, the source holds several entries; their conditions need not be identical. Identical values can stand only once. Inconclusive results, whose numbers are uncertain, are shown with a selection of clear calls. For part of these data: A potency beside an inconclusive call is a rough fit, not a confirmed value. Calls of active or inactive are those of the source. Calls come from the whole dose curve; as a rule, active = well fitted curve in the direction sought with a large enough effect; inconclusive = small, poorly fitted or top-dose-only effect, or another doubt; inactive = no such curve, though single readings can be large; an effect the other way counts as inactive or inconclusive.

How the values were obtained:
[1] = qHTS of pediatric cancer cell lines to identify multiple opportunities for drug repurposing: Primary screen for SJ-GBM2 cells (AID 1347091);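 for activity change, negative = cytotoxic: plate controls were DMSO neutral control for no effect and bortezomib for full effect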
In short: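 Eight- or eleven-point concentration series, 48 h treatment at 37 degrees C in growth media; readout CellTiter-Glo luminescence. Potency and efficacy were taken from the concentration-response curves.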

[2] = qHTS of pediatric cancer cell lines to identify multiple opportunities for drug repurposing: Primary screen for A673 cells (AID 1347092); conditions: A673 Ewing sarcoma viability, CellTiter-Glo ATP luminescence, 48 h; activity change, negative = cytotoxic: at 46 µM (top of the series); note: nearly all actives have a fitted effect of over 45% in size
In short: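 Cell viability of A673 measured by CellTiter-Glo ATP luminescence after 48 hours compound exposure. Dilution series spanned 0.78 nM to 46 µM (MIPE, 11-point) or 0.59 nM to 46 µM (NPC, 8-point); bortezomib 2.3 uM positive control.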

[3] = qHTS of pediatric cancer cell lines to identify multiple opportunities for drug repurposing: Primary screen for NB-EBc1 cells (AID 1347095);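 for activity change, negative = cytotoxic: plate controls were DMSO neutral control for no effect and bortezomib for full effect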
In short: (§1)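 500-1,000 cells/well; 5 h pre-incubation 37 °C/5% CO2; compound pinned; 48 h; CellTiter-Glo, 15 min RT; luminescence. MIPE 11-pt from 0.78 nM, NPC 8-pt from 0.59 nM final. Bortezomib 2.3 µM final as positive control.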

[4] = qHTS of pediatric cancer cell lines to identify multiple opportunities for drug repurposing: Primary screen for Saos-2 cells (AID 1347097); note: nearly all actives have a fitted effect of over 40% in size
In short: as §1

[5] = qHTS of pediatric cancer cell lines to identify multiple opportunities for drug repurposing: Primary screen for SK-N-SH cells (AID 1347098); note: nearly all actives have a fitted effect of over 65% in size;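 for activity change, negative = cytotoxic: DMSO served as neutral control and bortezomib at 2.3 µM as positive control; % is set by controls: 0 for no effect and ±100 for the full control effect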
In short: (§2)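 Cells (500-1,000/well) rested 5 h, then received compounds for 48 h; metabolically active cells were measured by CellTiter-Glo luminescence. Final concentrations spanned up to 46 µM (MIPE, 11-point) or 0.59 nM-46 µM (NPC, 8-point) in primary screens, 11-point in follow-ups.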

[6] = qHTS of pediatric cancer cell lines to identify multiple opportunities for drug repurposing: Primary screen for LAN-5 cells (AID 1347100); conditions: LAN-5 neuroblastoma viability, CellTiter-Glo luminescence, 48 h; activity change, negative = cytotoxic: at 46 µM (top of the series)
In short: (§3)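 Cells (500-1,000/well) in growth media were settled 5 h at 37 degrees C, then given compounds for 48 h. Viability was read as CellTiter-Glo luminescence. Primary runs used MIPE at 11 points (0.78 nM-46 µM) and NPC at 8 points (0.59 nM-46 µM); follow-ups used 11 points.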

[7] = qHTS of pediatric cancer cell lines to identify multiple opportunities for drug repurposing: Primary screen for MG 63 (6-TG R) cells (AID 1347105); conditions: MG 63 (6-TG R) viability, CellTiter-Glo, 48 h; activity change, negative = cytotoxic: at 46 µM (top of the series); note: nearly all actives have a fitted effect of over 50% in size; for activity change, negative = cytotoxic: % is set by controls: 0 for no effect and ±100 for the full control effect
In short: as §1

[8] = qHTS of pediatric cancer cell lines to identify multiple opportunities for drug repurposing: Primary screen for Rh30 cells (AID 1347107); note: nearly all actives have a fitted effect of over 75% in size; for activity change, negative = cytotoxic: % is set by controls: 0 for no effect and ±100 for the full control effect
In short: as §3

[9] = qHTS of pediatric cancer cell lines to identify multiple opportunities for drug repurposing: Primary screen for Rh41 cells (AID 1347108); note: nearly all actives have a fitted effect of over 70% in size;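 for activity change, negative = cytotoxic: luminescence drop marks cytotoxic hits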
In short: as §1

[10] = qHTS of pediatric cancer cell lines to identify multiple opportunities for drug repurposing: Confirmatory screen for NB1643 cells (AID 1347109); conditions: NB1643 neuroblastoma cell viability; activity change, negative = cytotoxic: at 45.9 µM (top of the series); note: nearly all actives have a fitted effect of over 45% in size
In short: as §3

[11] = qHTS of pediatric cancer cell lines to identify multiple opportunities for drug repurposing: Primary screen for BT-37 cells (AID 1347094)
In short: as §1

[12] = qHTS of pediatric cancer cell lines to identify multiple opportunities for drug repurposing: Primary screen for NB1643 cells (AID 1347099); note: nearly all actives have a fitted effect of over 50% in size
In short: as §1

[13] = qHTS of pediatric cancer cell lines to identify multiple opportunities for drug repurposing: Primary screen for BT-12 cells (AID 1347101); note: nearly all actives have a fitted effect of over 25% in size;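 for activity change, negative = cytotoxic: plate controls were DMSO for no effect and bortezomib positive control for full effect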
In short: as §2

[14] = qHTS of pediatric cancer cell lines to identify multiple opportunities for drug repurposing: Primary screen for SK-N-MC cells (AID 1347093); conditions: SK-N-MC viability, CellTiter-Glo luminescence, 48 h; activity change, negative = cytotoxic: at 46 µM (top of the series)
In short: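 Metabolically active cells were quantified by ATP-dependent luminescence (CellTiter-Glo, 15 min at room temperature) following 48 h treatment. Cells had been plated at 500-1,000 per well and settled for 5 h beforehand.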

[15] = qHTS of pediatric cancer cell lines to identify multiple opportunities for drug repurposing: Primary screen for OHS-50 cells (AID 1347103); note: nearly all actives have a fitted effect of over 40% in size;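 for activity change, negative = cytotoxic: plate controls were DMSO neutral control for no effect and bortezomib positive control for full effect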
In short: as §2

[16] = qHTS of pediatric cancer cell lines to identify multiple opportunities for drug repurposing: Primary screen for U-2 OS cells (AID 1347096); note: nearly all actives have a fitted effect of over 50% in size
In short: as §3

[17] = qHTS of pediatric cancer cell lines to identify multiple opportunities for drug repurposing: Primary screen for Rh18 cells (AID 1347102); note: nearly all actives have a fitted effect of over 65% in size; for activity change, negative = cytotoxic: % is set by controls: 0 for no effect and ±100 for the full control effect
In short: as §3

[18] = qHTS of pediatric cancer cell lines to identify multiple opportunities for drug repurposing: Primary screen for RD cells (AID 1347104); note: nearly all actives have a fitted effect of over 55% in size;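 for activity change, negative = cytotoxic: plate controls were DMSO for no effect and bortezomib for full effect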
In short: as §1

[19] = qHTS of pediatric cancer cell lines to identify multiple opportunities for drug repurposing: Primary screen for control Hh wild type fibroblast cells (AID 1347106); note: nearly all actives have a fitted effect of over 55% in size
In short: as §3
Potency is the fitted concentration of half-maximal effect; tags give direction and shape of the fitted curve.

CNC(=O)[C@H](CC1=CN=C2C=CCC=C12)NC(=O)[C@@H](CC(=O)NO)CC(C)C
active: Potency [2] 46.9 nM | Potency [5] 1.21 µM | Potency [7] 9.35 µM
inconclusive: Potency [3] 0.209 µM [cytotoxic, full curve] | Potency [4] 18.7 nM [cytotoxic, full curve] | Potency [6] 0.132 µM [cytotoxic, full curve] | Potency [9] 0.0066 µM [cytotoxic, full curve] | Potency [10] 1.17 µM [cytotoxic, full curve, poor fit]
inactive: Potency [1] | Potency [8]

C[C@H]1COC2=C1C(=O)C(=O)c1c2ccc2c1CCCC2(C)C
active: Potency [1] 20.9 µM | Potency [4] 5900 nM
inconclusive: Potency [11] 3.06 µM [cytotoxic, partial curve, poor fit] | Potency [3] 37.2 µM [cytotoxic, single point] | Potency [12] 26.4 µM [cytotoxic, single point] | Potency [13] 3.06 µM [cytotoxic, partial curve, poor fit] | Potency [9] 11.8 µM [cytotoxic, partial curve]
inactive: Potency [7]

COc1cc(OC)c(NC(=O)Nc2cc(C)on2)cc1Cl
inactive: Potency [1] | Potency [3]
inconclusive: Potency [14] 18.7 µM [cytotoxic, partial curve, poor fit] | Potency [12] 23.5 µM [cytotoxic, partial curve] | Potency [15] 27.3 µM [cytotoxic, single point] | Potency [9] 33.2 µM [cytotoxic, partial curve, poor fit]

O=C(O)CCCc1c[nH]c2ccccc12
inconclusive: Potency [12] 3.32 µM [cytotoxic, partial curve, poor fit] | Potency [6] 11.8 µM [cytotoxic, partial curve, poor fit] | Potency [13] 3.43 µM [cytotoxic, partial curve]
inactive: Potency [1] | Potency [9]
active: Potency [3] 18.7 µM

COc1cc(OC2CCN(C)CC2)ccc1Nc1ncc2c(n1)n(C1CCCC1)c(=O)n2C
inconclusive: Potency [19] 14.8 µM [cytotoxic, partial curve]
active: Potency [1] 16.6 µM | Potency [14] 3.32 µM | Potency [16] 23.5 µM | Potency [5] 12.1 µM | Potency [12] 10.5 µM | Potency [6] 13.2 µM | Potency [17] 20.9 µM | Potency [18] 18.7 µM | Potency [8] 20.9 µM | Potency [9] 18.7 µM

Fc1ccc([C@@H]2CCNC[C@H]2COc2ccc3c(c2)OCO3)cc1
inconclusive: Potency [1] 18.8 µM [cytotoxic, partial curve] and 33.2 µM [cytotoxic, single point] | Potency [2] 26.6 µM [cytotoxic, single point] and 23.5 µM [cytotoxic, single point] | Potency [17] 15 µM [cytotoxic, partial curve, poor fit] and 23.5 µM [cytotoxic, partial curve, poor fit] | Potency [15] 24.6 µM [cytotoxic, partial curve] and 8.63 µM [cytotoxic, full curve] | Potency [18] 29.9 µM [cytotoxic, single point] and 26.4 µM [cytotoxic, single point]

C[C@@H](NCc1cc2ccccc2[nH]1)c1cccc2ccccc12
inactive: Potency [1] | Potency [5] | Potency [18]
inconclusive: Potency [3] 37.2 µM [cytotoxic, single point]

CCc1cc(C(C)=NOCc2ccc(C3CCCCC3)c(C(F)(F)F)c2)ccc1CN1CC(C(=O)O)C1
inconclusive: Potency [1] 33.2 µM [cytotoxic, single point] | Potency [11] 2.73 µM [cytotoxic, full curve] | Potency [4] 74.3 nM [cytotoxic, full curve] | Potency [5] 42.9 µM [cytotoxic, single point] | Potency [6] 4.69 µM [cytotoxic, full curve] | Potency [17] 23.5 µM [cytotoxic, single point] | activity change, negative = cytotoxic [7] -40.6% [cytotoxic] | Potency [9] 0.0296 µM [cytotoxic, full curve, poor fit]
active: Potency [14] 0.0372 µM | Potency [12] 2.64 µM | Potency [13] 3.06 µM | Potency [15] 8.63 µM | Potency [18] 5.9 µM

CCN1CCN(c2ccc(Nc3cc(N(C)C(=O)Nc4c(Cl)c(OC)cc(OC)c4Cl)ncn3)cc2)CC1
active: Potency [1] 18.7 µM | Potency [3] 20.9 µM
inconclusive: Potency [14] 11.8 µM [cytotoxic, partial curve] | Potency [4] 935 nM [cytotoxic, full curve] | Potency [17] 0.418 µM [cytotoxic, partial curve] | Potency [15] 10.9 µM [cytotoxic, full curve] | Potency [18] 18.7 µM [cytotoxic, partial curve] | Potency [8] 8.33 µM [cytotoxic, partial curve]

COc1ccc2c(c1)c(CC(=O)O)c(C)n2C(=O)c1ccc(Cl)cc1
inactive: Potency [3] | Potency [13] | Potency [17]
inconclusive: Potency [1] 29.9 µM [cytotoxic, single point] and 18.7 µM [cytotoxic, partial curve] | Potency [4] 26.6 µM [cytotoxic, single point] and 14.8 µM [cytotoxic, partial curve] | Potency [18] 29.6 µM [cytotoxic, single point] | Potency [8] 20.9 µM [cytotoxic, partial curve] | Potency [9] 23.5 µM [cytotoxic, single point]

O=C(C[C@@H]1CC=CCCC(=O)O[C@H](c2ccccc2)CNC1=O)NCc1ccc(Cl)cc1
inconclusive: Potency [14] 9.35 µM [cytotoxic, partial curve] | Potency [18] 7.43 µM [cytotoxic, partial curve]
inactive: Potency [1] | Potency [13] | Potency [15]

CNC(=O)c1ccc2c(C(=Nc3cccc(CN(C)C)c3)c3ccccc3)c(O)[nH]c2c1
inactive: Potency [13]
inconclusive: Potency [1] 16.6 µM [cytotoxic, partial curve] | Potency [11] 19.3 µM [cytotoxic, partial curve] | Potency [3] 16.6 µM [cytotoxic, partial curve] | Potency [4] 13200 nM [cytotoxic, partial curve] | Potency [6] 23.5 µM [cytotoxic, single point] | Potency [18] 14.8 µM [cytotoxic, partial curve] | Potency [9] 9.35 µM [cytotoxic, partial curve]
active: Potency [5] 21.5 µM
